“And” between values parts separate entries of the source, which are not always exact repeats. Identical values can stand only once.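 All cell lines were grown in 96-well plates and treated with compound for 48 hours. GI50 = concentration required for 50% inhibition of growth. TGI marks complete inhibition of growth.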 A value given as a limit tells only on which side of the number the result lay.

The assay relates to NCI-H322M lung. The experiment in a line: inhibition of tumour cell growth, NCI panel, 48 h.

Consider `Cc1ccc(SC(CCC(Sc2ccc(C)cc2)Sc2ccc(C)cc2)Sc2ccc(C)cc2)cc1`, for which the TGI was greater than 100 µM.
Same read-out and setting: next, `CC(C)OP(=O)(OC(C)C)/C(I)=N/Nc1ccc([N+](=O)[O-])cc1`: greater than 100 µM.
Turning to `COc1cccc(-c2nc3sccn3c2-c2ccnc(NCCCNS(=O)(=O)c3cccc(F)c3)c2)c1`, the GI50 is 3.6 µM and the TGI is greater than 100 µM.
In the case of `O=S(=O)(c1ccccc1)n1c2ccc(Br)cc2c2nc3ccccc3nc21`, the TGI was greater than 100 µM.
In the case of `COC(=O)C1Cc2c(OC)ccc(OC)c2CC(C(=O)OC)C1=O` (stereo not drawn), the TGI is greater than 100 µM.
On to `C[Si](C)(OCCS(=O)(=O)O)C1(Cc2cccc3ccccc23)S(=O)(=O)OCCOS1(=O)=O`, for which the TGI is 48.9 µM.
`Cc1ccc(NC(=O)C2C(=O)N(c3ccc(C)cc3)C(=O)/C2=N\NC(N)=S)cc1` (stereo not drawn) displayed a TGI greater than 100 µM.
Regarding `CC[N+](CC)=c1sc2c(s1)C(c1ccc(Cl)cc1)Oc1ccc(Cl)cc1-2` (stereo not drawn), the GI50 was 2.64 µM and the TGI amounted to 10.1 µM.
Regarding `COC(=O)[C@@H](C)C[C@H](Cc1ccccc1)NC(=O)c1csc(CC[C@H](C(C)C)N(C)C(=O)[C@@H](NC(=O)[C@H]2CCCCN2C)C(C)C)n1`, the GI50 was 0.704 µM and the TGI is greater than 33.3 µM.
`COC(=O)[C@@H]1[C@@H](c2cccc(Cl)c2)[C@H](C(=O)OC)C2(C[C@@]1(C)O)NCCS2` (stereo partly drawn) displayed a TGI greater than 100 µM.
`Nc1nc(Cl)c(N)c(NCC2(CO)CC(OCc3ccccc3)C2)n1` (stereo not drawn) registered a TGI greater than 100 µM.
On the same count and under the same terms, for `CCCC(=O)NC1=C(Cl)C(=O)c2ccccc2C1=O` the value was 43.1 µM; for `CCCCc1ccc(Nc2nc3c(ncn3C3CC(O)C(CN=[N+]=[N-])O3)c(=O)[nH]2)cc1` (stereo not drawn), greater than 100 µM.
Same read-out and setting: for `CC(=O)OC(/C=C/c1ccccc1)P1(=O)N(CC(C)(C)C)[C@@H]2CCCC[C@H]2N1CC(C)(C)C` (stereo partly drawn) the value was 23.4 µM and 24 µM; for `Cc1cc(=O)oc2cc(OC(=O)N(C)C)c(Cl)cc12`, greater than 100 µM; for `O=C1c2ccccc2C(Br)(Br)c2ccccc21`, greater than 100 µM.
Same read-out and setting: next, `O=C1NC(SSC2=NNC3(C(=O)N2)c2ccccc2-c2ccccc23)=NNC12c1ccccc1-c1ccccc12`: greater than 10 µM.
Regarding `CCC[CH2][Sn]1([CH2]CCC)[O]CC(Cc2ccccc2)[O]1` (stereo not drawn), the GI50 was 13.3 µM and the TGI was 26 µM.
Turning to `CN(CCn1cnc2c1c(=O)n(C)c(=O)n2C)C1CCCCC1`, the TGI was greater than 100 µM.
For the molecule `COc1ccc(-c2cc(=O)c3cc4c(cc3[nH]2)OCO4)cc1OC`, the TGI was greater than 100 µM.
Take `CN(C)CCCOc1ccc(-c2ccc3ncc4c(c3c2)n(C2CCOCC2)c(=O)n4C)cn1`: the GI50 was 1.99 µM and the TGI amounted to 11.3 µM.
Consider `CCN(CC)CC1CCCCN1CC(=O)N1c2ccccc2NC(=O)CC1C` (stereo not drawn), for which the TGI was greater than 100 µM.
Turning to `COc1ccc2c(c1)N1CCc3cc(OC)c(OC)cc3C1C2` (stereo not drawn), the TGI is greater than 100 µM.
The same measure, in the same setting: next, `COC(=O)CCC(=O)NC1=C(NCc2ccccc2)C(=O)c2ccccc2C1=O`: greater than 100 µM.
For `CC(=O)OCCCOCn1c(Cc2ccccc2)c(C)c(=O)[nH]c1=O`, the TGI was greater than 100 µM.
For the molecule `CC(=O)[CH-]C(C)=O.CC(=O)[CH-]C(C)=O.[CH2-]CCC.[CH2-]CCC.[Sn+4]`, the GI50 was 1.47 µM and the TGI came out at 2.79 µM.
In turn, `CC(=O)OCCOCn1c2c(c(=S)[nH]c1=O)CCC2` registered a TGI greater than 100 µM.
On the same count and under the same terms, next, `O=C(c1ccco1)N1CCCN(C(=O)c2ccco2)C1=S`: greater than 100 µM.
On to `Cc1cnc(NC(=O)Nc2cc(Br)c(C)cc2OC[C@@H]2CNCCO2)cn1`, for which the GI50 is 0.62 µM and 1.27 µM; the TGI is > 10 µM and 14 µM.
Turning to `COc1ccc2c(c1)C(=O)c1c-2n(CCCN=[N+]=[N-])c(=O)c2cc(OC)c(OC)cc12`, the GI50 is greater than 100 µM and the TGI was greater than 100 µM.
Molecule `Cc1ccsc1/C=N/Nc1nc2ccccc2s1` showed a TGI of 95.7 µM.
With `COc1ccc2nc3c([N+](=O)[O-])ccc4c3c(c2c1)NCCN4CCO`, the TGI worked out at 2.84 µM.
The same measure, in the same setting: next, `Cc1cccc2c(=O)c([Se]c3coc4c(C)cccc4c3=O)coc12`: 18.4 µM; `c1cc(N(CCn2cccn2)CCn2cccn2)cc(N(CCn2cccn2)CCn2cccn2)c1`: greater than 100 µM; `O=C1CC2(c3ccccc3)ON=C(c3ccccc3)N2c2ccccc2N1` (stereo not drawn): greater than 100 µM.
As for `CC(=O)O[C@H]1CC[C@@]2(C)C(=CC[C@H]3[C@@H]4CC[C@H](c5cc(C(F)(F)F)n(C(C)=O)n5)[C@@]4(C)CC[C@@H]32)C1`, the TGI is 23.8 µM.
As to `O=C1CCC2(CC1CC(Sc1ccccc1)Sc1ccccc1)OCCO2` (stereo not drawn), the TGI is greater than 100 µM.
The same measure, in the same setting: next, `C#Cc1cccc(N2C(=O)CCC2=O)c1`: 56 µM.
Same read-out and setting: next, `Cc1ccc(N2Cc3c(ccc4ccccc34)OP2(=O)Oc2ccc(Cl)c(C)c2)cc1` (stereo not drawn): greater than 100 µM; `O=C(c1ccc(Cl)cc1)c1ccc(OCCCOc2ccc(C(=O)c3ccc(Cl)cc3)cc2)cc1`: greater than 100 µM.
As to `Clc1nc(Cl)c2ncn(Cc3cccc(Cn4cnc5c(Cl)nc(Cl)nc54)c3)c2n1`, the GI50 is 14.1 µM and the TGI turned out to be 27.3 µM.
`S=C(Nc1ccc(Br)cc1)Nc1ccc(Br)cc1`: the GI50 was greater than 100 µM and the TGI was greater than 100 µM.
For the molecule `Fc1ccc2[nH]cc(-c3nonc3-c3c[nH]c4ccc(Br)cc34)c2c1`, the GI50 is 2.83 µM and the TGI was found to be 12.7 µM.
The like results for `CCN(Cc1cccc(F)c1)c1ccc(CO)c(Cl)c1` were, in that order, 15.8 µM and 78.4 µM.
Regarding `C=C1C(O)C2C(=C(CCc3ccccc3)C13CC3)C(=O)C(C)(CO)C2O` (stereo not drawn), the GI50 is 28.4 µM and the TGI is greater than 100 µM.
With `C=C1C(=O)O[C@H]2C[C@@H]1CC/C(C)=C/CC/C(C)=C/CC[C@H]2C`, the GI50 is 16.7 µM and the TGI was 36.2 µM.
Regarding `C[C@H](CCC(=O)NCCS(=O)(=O)O)[C@H]1CC[C@H]2[C@@H]3CC[C@@H]4C[C@H](O)CC[C@]4(C)[C@H]3CC[C@]12C`, the TGI was greater than 100 µM.
The same measure, in the same setting: next, `COc1ccc(Nc2nc3ccc(C(F)(F)F)cc3nc2-c2ccccc2)cc1OC`: greater than 100 µM; `Cc1nc(C)c(C(=O)NNC(N)=S)cc1C(=O)NNC(N)=S`: greater than 100 µM; `Cc1c(Cl)nc(Nc2nc3ccccc3[nH]2)nc1Cl`: greater than 100 µM.
On the same count and under the same terms, next, `CC(O)c1cc2c(s1)C(=O)c1sccc1C2=O` (stereo not drawn): 0.358 µM; `COc1ccc2c(C)cc(N/N=C/c3ccc(OC)c4ccccc34)nc2c1`: 30.2 µM.
Same read-out and setting: for `O=C(NCCC1([N+](=O)[O-])CCN(C(=O)c2ccccc2)CC1)c1ccccc1` the value was greater than 100 µM.
`Cn1c(=O)c(C(=O)Nc2nc(C34CC5CC(CC(C5)C3)C4)cs2)c(O)c2ccccc21` had a TGI greater than 100 µM.

These data come from PubChem BioAssay (NCI).
